Experimental data taken from patent US5616684A, “Cyclic peptides and use thereof” (priority 1991, dated 1997).
Not every detail of the peptide structures is certain; ends, links or a residue may be inferred. Non-standard residues stand in square brackets, D forms with d. Residues, ends and D or L forms follow the SMILES beside them. *: point of attachment. d(tBuAla) = CC(C)(C)C[C@@H](N)C(=O)O; Ac5c = NC1(C(=O)O)CCCC1; Bn = c1ccc(C*)cc1

How the values were obtained:
[1] = system: ETB receptor (guinea pig kidney crude receptor membrane fraction); assay: ETB Radio Receptor Assay *2; assay type: binding; conditions: relative activity (Example 8 given as 100), 125I-endothelin-1, 37° C., 90 minutes
Protocol: ETB Radio Receptor Assay *2
In the endothelin radio receptor assay, guinea pigs' kidneys were used. Guinea pigs (Std Hartrey, male 250 g, Japan SLC Ltd.) were made to have a cerebral concussion and sacrificed by bleeding from carotid arteries to pick up the kidneys and removed fat therefrom to prepare the kidneys. The obtained kidneys were sliced and homogenized by politron homogenizer in 20 ml of 50 mM Tris-HCl buffer [pH 7.4; 20 mM NaHCO3, 0.1 mM PMSF (Phenylmethylsulfonyl Fluoride), 1 mM EDTA (Ethylenediaminetetraacetic acid)] per one kidney. The homogenized kidney was applied to a centrifugation at 1,000×g for 15 minutes and the supernatant was further applied to a centrifugation for 20 minutes at 30,000×g. The resulting precipitate was twice washed with 50 mM Tris-HCl buffer (pH 7.4) containing 0.1 mM PMSF, 1 mM EDTA. The resultant was stored at -80 ° C. as a crude receptor membrane fraction and was used as the suspension in the following buffer when necessary.
740 Bq of ^125 I-endothelin-1 (81.4 TBq/mmol, Du Pont, USA) as a radio ligand, the crude membrane fraction (2.1 μg protein) and samples were added to the following buffer. The reaction was performed at 37° C., for 90 minutes in 0.2 ml of the buffer [50 mM Tris-HCl buffer (pH 7.4) containing 0.1 mM PMSF, 1 mM EDTA, 0.2% bovine serum albumin].
The reaction was stopped by fast filtration on a glass filter (GF/B, Wattman, USA) by Cell Harvestor (290 PHD, Cambridge-Technology, Great Britain), and the filter was three times washed with 50 mM Tris-HCl buffer (pH 7.4). Radio activity remained on the filter was assayed by a gamma counter.

[2] = biological target: T1, endothelin receptor A (ETA) (Sus scrofa, UniProt Q29010); assay: Assay of Affinity for Receptor (1): Binding Activity on ETA Receptor; design: key: relative binding activity; reference cyclic pentapeptide = 1.0; conditions: specific activity, binding activity of cyclo[-D-Glu-Ala-D-aIle-Leu-D-Trp-] taken as 1.0; porcine heart membrane fraction, 125I-labeled endothelin-1, 25° C., 1 hour
T1 construct: A membrane fraction prepared from the porcine heart; from tissue; host or cells: porcine heart membrane fraction
T1 sequence (Q29010 21-427): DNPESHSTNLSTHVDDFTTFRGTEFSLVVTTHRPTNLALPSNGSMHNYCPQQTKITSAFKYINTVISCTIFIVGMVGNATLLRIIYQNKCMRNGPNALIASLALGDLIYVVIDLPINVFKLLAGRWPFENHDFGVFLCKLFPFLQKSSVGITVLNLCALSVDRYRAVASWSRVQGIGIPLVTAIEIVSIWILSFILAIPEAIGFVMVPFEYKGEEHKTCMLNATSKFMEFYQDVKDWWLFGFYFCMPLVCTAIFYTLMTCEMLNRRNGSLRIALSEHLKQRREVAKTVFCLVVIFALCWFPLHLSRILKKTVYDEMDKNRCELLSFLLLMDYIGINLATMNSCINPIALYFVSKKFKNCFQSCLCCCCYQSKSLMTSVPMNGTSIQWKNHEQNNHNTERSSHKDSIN
Protocol: Assay of Affinity for Receptor (1) . . . Binding Activity on ETA Receptor
A membrane fraction prepared from the porcine heart was diluted to 0.15 mg/ml by using a buffer solution for assay, and 100 μl of the resulting suspension of the membrane fraction was poured into each assay tube to use for assay. To this suspension of the membrane fraction was added 2 μl of 5 nM ^125 I-labeled endothelin-1 solution. Further, 3 μl of a test peptide solution was added thereto, followed by incubation at a temperature of 25° C. for 1 hour. Then, the resulting suspension was diluted with 900 μl of the buffer solution for assay cooled with ice, and thereafter separated into a supernatant and a precipitate by centrifugation at 12,000×g for 10 minutes. Cell membranes and an endothelin receptor A (ETA) embedded therein were contained in the precipitate, and radioactive iodine-labeled endothelin combined with the receptor was also recovered in the precipitate. Accordingly, the amount of radioactive iodine-labeled endothelin combined with the endothelin receptor A (ETA) was determined by measuring the amount of radioactive iodine contained in the precipitate with a gamma-ray counter. The cyclic pentapeptide described in Japanese Patent Application No. 2-413828/1990, cyclo[-D-Glu-Ala-D-aIle-Leu-D-Trp-], was used as a control compound. The numerical value of ETA shown in Table 1 is the value of specific activity, taking the binding activity of this cyclic pentapeptide on the receptor A as 1.0. The binding activity (IC50) of this cyclic pentapeptide on the ETA receptor is 2×10^-6 M.

Row | Compound | Binding Activity on ET Receptor (R. act.) ET8 *2 [1] | Binding Activity on ET Receptor (R. act.) ETA [2]
1 | CC(C)C[C@@H]1NC(=O)[C@@H](CC(C)C)NC(=O)[C@@H](CC(=O)O)NC(=O)[C@H](C)NC(=O)[C@@H](CC(=O)O)NC(=O)[C@@H](Cc2c[nH]c3ccccc23)NC1=O [Example 2, cyclo[-D-Asp-Ala-D-Asp-D-Leu-Leu-D-Trp-]] (cyclo(A[dD][dL]L[dW][dD])) | 3.1 | 3.7
2 | CC(C)C[C@@H]1NC(=O)[C@@H](CC(C)C)NC(=O)[C@H](CCC(=O)O)NC(=O)[C@H](C)NC(=O)[C@@H](CC(=O)O)NC(=O)[C@@H](Cc2c[nH]c3ccccc23)NC1=O [Example 3, cyclo[-D-Asp-Ala-Glu-D-Leu-Leu-D-Trp-]] (cyclo(AE[dL]L[dW][dD])) | 23 | 7.9
3 | CC(C)C[C@@H]1NC(=O)[C@@H](CC(C)C)NC(=O)[C@H](C)NC(=O)CNC(=O)[C@@H](CC(=O)O)NC(=O)[C@@H](Cc2c[nH]c3ccccc23)NC1=O [Example 5, cyclo[-D-Asp-Gly-Ala-D-Leu-Leu-D-Trp-]] (cyclo(A[dL]L[dW][dD]G)) | – | 1.3
4 | CC(C)C[C@@H]1NC(=O)[C@@H](CC(C)C)NC(=O)[C@H](C)NC(=O)[C@H](CCC(=O)O)NC(=O)[C@@H](CC(=O)O)NC(=O)[C@@H](Cc2c[nH]c3ccccc23)NC1=O [Example 7, cyclo[-D-Asp-Glu-Ala-D-Leu-Leu-D-Trp-]] (cyclo(A[dL]L[dW][dD]E)) | 7.1 | 6.5
5 | CC(C)C[C@@H]1NC(=O)[C@@H](CC(C)C)NC(=O)[C@H](CC(=O)O)NC(=O)[C@@H](C)NC(=O)[C@@H](CC(=O)O)NC(=O)[C@@H](Cc2c[nH]c3ccccc23)NC1=O [Example 15, Cyclo[--D--Asp--D--Ala--Asp--D--Leu--Leu--D--Trp--]] (cyclo(D[dL]L[dW][dD][dA])) | 7.7 | 5.7
6 | CC(C)C[C@@H]1NC(=O)[C@@H](CC(C)C)NC(=O)[C@H](CC(=O)O)NC(=O)[C@H](COCc2ccccc2)NC(=O)[C@@H](CC(=O)O)NC(=O)[C@@H](Cc2c[nH]c3ccccc23)NC1=O [Example 20, Cyclo[--D--Asp--Ser(Bzl)--Asp--D--Leu--Leu--D--Trp--]] (cyclo(D[dL]L[dW][dD]S(Bn))) | 13 | 14
7 | CC(C)C[C@@H]1NC(=O)[C@@H](CC(C)C)NC(=O)[C@H](CC(=O)O)NC(=O)[C@H]([C@@H](C)OCc2ccccc2)NC(=O)[C@@H](CC(=O)O)NC(=O)[C@@H](Cc2c[nH]c3ccccc23)NC1=O [Example 21, Cyclo[--D--Asp--Thr(Bzl)--Asp--D--Leu--Leu--D--Trp--]] (cyclo(D[dL]L[dW][dD]T(Bn))) | 5.0 | 4.3
8 | CC(C)C[C@@H]1NC(=O)[C@@H](CC(C)C)NC(=O)[C@@H](C)NC(=O)[C@H](CC(=O)O)NC(=O)[C@@H](CC(=O)O)NC(=O)[C@@H](Cc2c[nH]c3ccccc23)NC1=O [Example 29, Cyclo[--D--Asp--Asp--D--Ala--D--Leu--Leu--D--Trp--]] (cyclo(D[dA][dL]L[dW][dD])) | 2.4 | 2.6
9 | CC(C)C[C@@H]1NC(=O)[C@@H](CC(C)C)NC(=O)CNC(=O)[C@H](C)NC(=O)[C@@H](CCC(=O)O)NC(=O)[C@@H](Cc2c[nH]c3ccccc23)NC1=O [Example 40, Cyclo[--D--Glu--Ala--Gly--D--Leu--Leu--D--Trp--]] (cyclo(AG[dL]L[dW][dE])) | – | 1.4
10 | CC(C)C[C@@H]1NC(=O)[C@@H](CC(C)C)NC(=O)[C@H](CC(=O)O)NC(=O)[C@H](C)NC(=O)[C@@H](CCC(=O)O)NC(=O)[C@@H](Cc2c[nH]c3ccccc23)NC1=O [Example 41, Cyclo[--D--Glu--Ala--Asp--D--Leu--Leu--D--Trp--]] (cyclo(AD[dL]L[dW][dE])) | 26 | 2.1
11 | CC(C)C[C@@H]1NC(=O)[C@@H](CC(C)(C)C)NC(=O)[C@H](CC(=O)O)NC(=O)[C@H](Cc2c[nH]c3ccccc23)NC(=O)[C@@H](CC(=O)O)NC(=O)[C@@H](Cc2c[nH]c3ccccc23)NC1=O [Example 54, cyclo[-D-Asp-Trp-Asp-D-γMeLeu-Leu-D-Trp-]] (cyclo(D[d(tBuAla)]L[dW][dD]W)) | 1000 | 99
12 | CC(C)C[C@H]1NC(=O)[C@H](CC(=O)O)NC(=O)[C@H](C)NC(=O)[C@@H](CC(=O)O)NC(=O)[C@@H](Cc2c[nH]c3ccccc23)NC(=O)[C@H](Cc2ccccc2)NC1=O [Example 57, Cyclo[--D--Asp--Ala--Asp--D--Leu--Phe--D--Trp--]] (cyclo(AD[dL]F[dW][dD])) | 2.0 | –

The next lines start with the values.

Row | Binding Activity on ET Receptor (R. act.) ET8 *2 [1] | Binding Activity on ET Receptor (R. act.) ETA [2] | Compound
13 | 1.4 | 2.3 | CC(C)C[C@@H]1NC(=O)[C@@H](CC(C)C)NC(=O)[C@@H](CCC(=O)O)NC(=O)[C@H](C)NC(=O)[C@@H](CC(=O)O)NC(=O)[C@@H](Cc2c[nH]c3ccccc23)NC1=O [Example 4, cyclo[-D-Asp-Ala-D-Glu-D-Leu-Leu-D-Trp-]] (cyclo(A[dE][dL]L[dW][dD]))
14 | 7.1 | 6.0 | CC(C)C[C@@H]1NC(=O)[C@@H](CC(C)C)NC(=O)[C@H](C)NC(=O)[C@H](CC(=O)O)NC(=O)[C@@H](CC(=O)O)NC(=O)[C@@H](Cc2c[nH]c3ccccc23)NC1=O [Example 6, cyclo[-D-Asp-Asp-Ala-D-Leu-Leu-D-Trp-]] (cyclo(A[dL]L[dW][dD]D))
15 | 4.8 | 5.7 | CC(C)C[C@@H]1NC(=O)[C@@H](CC(C)C)NC(=O)[C@H](C)NC(=O)[C@@H](CC(=O)O)NC(=O)[C@@H](CC(=O)O)NC(=O)[C@@H](Cc2c[nH]c3ccccc23)NC1=O [Example 27, Cyclo[--D--Asp--D--Asp--Ala--D--Leu--Leu--D--Trp--]] (cyclo(A[dL]L[dW][dD][dD]))
16 | 5.3 | 5.7 | CC(C)C[C@@H]1NC(=O)[C@@H](CC(C)C)NC(=O)[C@H](C)NC(=O)[C@@H](CCC(=O)O)NC(=O)[C@@H](CC(=O)O)NC(=O)[C@@H](Cc2c[nH]c3ccccc23)NC1=O [Example 28, Cyclo[--D--Asp--D--Glu--Ala--D--Leu--Leu--D--Trp--]] (cyclo(A[dL]L[dW][dD][dE]))
17 | 11 | 34 | CC(C)C[C@@H]1NC(=O)C2(CCCC2)NC(=O)[C@H](CC(=O)O)NC(=O)[C@H](Cc2c[nH]c3ccccc23)NC(=O)[C@@H](CC(=O)O)NC(=O)[C@@H](Cc2c[nH]c3ccccc23)NC1=O [Example 44, Cyclo[--D--Asp--Trp--Asp--Acpe--Leu--D--Trp--]] (cyclo([Ac5c]L[dW][dD]WD))
